± gives the standard deviation. The full ranking holds about 6,600 sequences; the median of “pre-steady-state target cleavage rate” is about 0.07, and the highest 2% start at about 0.72. The entries are a selection whose mix differs from that of the whole data set.
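Further: 1 nM active piRISC with 0.1 nM target library at 33 °C single turnover.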

The assay has as its system MIWI (PIWIL1) piRISC loaded with Kctd7 piRNA (30 nt). The experiment in a line: pre-steady-state target cleavage rate (min^-1); MIWI and MILI are mouse PIWI proteins and EfPiwi is from a freshwater sponge; tags in brackets are library labels; higher = faster piRNA-guided slicing of the target. The note with it: guide: Kctd7 piRNA 5'p-UGUUAAUCUCUCAGAGAAGGUGACAGUGAU; auxiliary factor: 500 nM mouse GTSF1. In outline:
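The pre-steady-state cleavage rate was calculated from a burst-and-steady-state fit. Data came from Cleave-'n-Seq, in which […] transcribed, DNA-blocked target RNA library was mixed with 1 nM active affinity-purified piRISC carrying one synthetic guide, with or without 500 nM GTSF1 partner protein, in HEPES–potassium acetate buffer at 33 °C for 0–8 or 0–960 min. Uncleaved targets were sequenced and normalised to depth and to weakly complementary targets, three trials were pooled, and k3 was capped at 0.0001 min^-1.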
For UACACUGUGACCUUCUCUGAGAGAUAAACA, the “pre-steady-state target cleavage rate” value was found to be 0.167 ± 0.028.
Then UAGUCACACACCUUCUCUGAGAGAUAUUGA, with 0.0189 ± 0.0072; and UACACUGUCACCUUCUCUGUGAGAUUUUGA, with 0.0431 ± 0.016.
In the case of UAGUGACAGACCUGUCUCUGAGAGAUUAACA it was 0.0177 ± 0.004; in that of UAGUCUGUCACCUAGACUGAGAGAUUAACA, 0.0162 ± 0.0037.
On to UACACUGUCACCUUCUCUGUGAGAUUAUGA, for which the “pre-steady-state target cleavage rate” value was 0.0355 ± 0.013.
In the case of UAGUGUGUCAGCUUCACUGAGAGAUUAACA it was 0.375 ± 0.028.
Then UAGACAGUCAGCUUCUCUGAGAGAUUAACA, with 0.682 ± 0.035; and UACACUGUCACCAUCUCUGAGAGAUUUUGA, with 0.0166 ± 0.0069; and UAGUCUAUCACCUUCUCUGAGAGAUUAACA, with 0.531 ± 0.022.
In the case of UAGUGACUCACCUUCUCUGAGAGUUUAUCA it was 0.0426 ± 0.013.
Turning to UAGUGAGUCACCUUCUCUGAGACAUUUACA, the “pre-steady-state target cleavage rate” value stood at 0.0782 ± 0.021.
Then UAGUGACAGUGCUCUCUCUGAGAGAUUAACA, with 0.0146 ± 0.0035.
Then UUCACUGUCACCUUCUCUGAGAGAUUUUCA, with 0.157 ± 0.024; and UACUCAGUCACCUUCUCUGAGAGAUUAACA, with 0.325 ± 0.045; and UAGUCAGUCACGUUCUCUGAGAGAUUAACA, with 0.724 ± 0.037.
In the case of “UAGUGAGUCACCUUCUCUGAGAGAUUAACU [g2:g24:cont:t1U]” it was 0.4 ± 0.047; in that of UAGUCUCAGACCUUCUCUGAGAGAUUAUGA, 0.00764 ± 0.0029; in that of UAGUGACUCACCUUCACUGAGUGAUUAACA, 0.0251 ± 0.0056.
With UAGUGAGUCUCCUUCUCUGAGAGAUUAUGA, the “pre-steady-state target cleavage rate” value came out at 0.026 ± 0.0074.
With UUCACUGUGACCUUCUCUGAGACAUUAACA, the “pre-steady-state target cleavage rate” value came out at 0.121 ± 0.01.
Consider “UAGUCUGUCACCUUCUCUGAGAGAUUAACU [g2:g26:cont:t1U]”, for which the “pre-steady-state target cleavage rate” value is 0.405 ± 0.038.
Then UAGUGACAGACCUUCUCUGAGAGAUUACACA, with 0.0607 ± 0.013; and UAGUCUGUCAGCUUCUCUGAGACAUUAACA, with 0.0148 ± 0.0027; and UAGUGUCUCACCUUCUCUGAGAGAUUUUGA, with 0.0163 ± 0.0058.
Then UAGAGUGUCACCAUCUCUGAGAGAUUAACA, with 0.741 ± 0.045; and UAGUGACAGACUUUCUCUGAGAGAUUAACA, with 0.154 ± 0.012.
Then UAGUCUGUCACCUUCACUGAGAGAUUAUGA, with 0.0546 ± 0.019.
With UAGUGACAGUGCUUCUCUGAGAGAUUAAGCA, the “pre-steady-state target cleavage rate” value is 0.00521 ± 0.0027.
As for AUCACUGUCACCUUCUCUGAGACAUUAAGA, the “pre-steady-state target cleavage rate” value turned out to be 0.0074 ± 0.0033.
In the case of UUCUGAGUCACCUUCUCUGAGAGAUUUUGA it was 0.0824 ± 0.015.
In the case of UACACUGUCACCUUCUGUGAGAGAUUUUGA, the “pre-steady-state target cleavage rate” value was found to be 0.034 ± 0.012.
In the case of UUCACUGUCACCUUCUCUGAGAGAAUAUCA it was 0.2 ± 0.047; in that of UACACUGUCACCUACUCUGAGACAUUAACA, 0.104 ± 0.013; in that of UAGACUGUCACCUUCUCUGAUAGAUUAACA, 0.519 ± 0.04.
In the case of UAGUCUGUCACCUUCUCAGAGAGAUUAACA, the “pre-steady-state target cleavage rate” value is 0.429 ± 0.029.
Then AUCACUGUCACCUUCUCGGAGAGAUUAACA, with 0.285 ± 0.018; and UACACUGUCACCUUCUCUGAGAGGAUUAACA, with 0.317 ± 0.043; and UUCACUGUCACCUUCUCUGAGUGAUUAACA, with 0.0461 ± 0.0074.
Then UAGUGACAGUGGAUCACUGAGAGAUUAUCA, with less than 0.0001; and UAGUGACAGACCUUCACUGACAGAUUAACA, with 0.0123 ± 0.005; and UUCACUGUCACCUUCUCUGAGAGAAAUAGA, with 0.0191 ± 0.008.
Then UAGUCUCUCACCUUCUCUGAGAGAAUAACA, with 0.137 ± 0.025.
In the case of UAGACUGUCAGCUUCUCAGAGAGAUUAACA, the “pre-steady-state target cleavage rate” value turned out to be 0.188 ± 0.014.
As for UACACUGUCAGCUUCUCUGAGAGAUUAUCA, the “pre-steady-state target cleavage rate” value is 0.214 ± 0.026.
In the case of UACACUGACUCCUUCUCUGAGAGAUUAACA it was 0.496 ± 0.035; in that of UUCACUGUCACCUUCUCUCAGAGUUUAACA, 0.0675 ± 0.01; in that of UAGUGACAGUGGAACUCUGAGAGAUUAGACA, less than 0.0001.
Then UUCACUGUCCCUUCUCUGAGAGAUUAACA, with 0.648 ± 0.047; and UAGUGUGUCACCUUCUGUGAGAGAUUUUGA, with 0.00834 ± 0.0038; and UAGUGACUCACCUUCACUGUGAGAUUAACA, with 0.0777 ± 0.0083.
In the case of UACACUGUGACCAUCUCUGAGAGAUUAACA it was 0.487 ± 0.032; in that of UACACACACACCUUCUCUGAGAGAUUAACA, 0.412 ± 0.036; in that of UAGUGUGUCUCCUUGUCUGAGAGAUUAACA, 0.0757 ± 0.011.
Regarding AUCACUCUCACCUUCUCUGAGUGAUUAACA, the “pre-steady-state target cleavage rate” value came to 0.0296 ± 0.0065.
In the case of UUCACUGUCUCCUUCUCUGAGAGAUUUACA it was 0.267 ± 0.036; in that of UAGUGUGUCACGUUCACUGAGAGAUUAACA, 0.415 ± 0.026.
Then UAGUGUGUCAGGAUCUCUGAGAGAUUAAGA, with 0.00435 ± 0.0028.
Then UACACUCUCACCUUCUCUGAGAGAUUAUGA, with 0.0353 ± 0.013.
On to AUCACUGUCACCUUCGCUGAGAGAUUAACA, for which the “pre-steady-state target cleavage rate” value is 0.564 ± 0.049.
Then UAGUCUGUCACCUUCUCUGAGAGAUAAUGA, with 0.0204 ± 0.0082; and UUCACUGUCACCUUCUCUGACUCAUUAACA, with 0.00765 ± 0.0022; and UACACUGUCAGCUACUCUGAGAGAUUAACA, with 0.562 ± 0.027.
In the case of “UUCACUGUCACCUUCUCUGAGAGAUUAACU [g2:g29:cont:t1U]” it was 0.432 ± 0.036; in that of AUACACUGUCACCUUCUCUGAGAGAUUAACA, 0.752 ± 0.05; in that of UACACUGUCACGUUCUCUGAGAGAUUAUGA, 0.0469 ± 0.017.
In the case of AUCACUCUCACCUUCUCUGAGAGAUUUACA it was 0.191 ± 0.03; in that of UAGACUGUCACCUUCUCAGAGAGAUAAACA, 0.107 ± 0.014; in that of UAGUGACUCACCUUCUGUGACAGAUUAACA, 0.177 ± 0.014.
With AUCACUGUCACCUUCUCUGAGCGAUUAACA, the “pre-steady-state target cleavage rate” value is 0.121 ± 0.012.
UUCGCUGUCACCUUCUCUGAGAGAUUAACA: the “pre-steady-state target cleavage rate” value was 0.626 ± 0.04.

Values taken from the supplement of paper PMC10338343.
